Test results taken from the supplement of paper PMC3334620.
Over roughly 33,000 sequences, “E-score (-0.5 to 0.5)” has its median near -0.016; the highest 2% begin near 0.31. This is one part of the list.

target: Cst6 (UniProt P40535); test: PBM E-score (8-mer binding enrichment) (E-score (-0.5 to 0.5)); higher = stronger / more preferred TF binding; most listed sequences are background and not binding sites; conditions: protein concentration: 200 nM; construct: GST-DNA-binding domain
How it was run: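 For each ungapped eight-base word taken together with its reverse complement, the Universal PBM Analysis Suite assigned an E-score. Binding data came from GST-tagged yeast transcription factors, applied at about 100-200 nM, on universal all-10-mer Agilent arrays made double-stranded by primer extension. Fluorescent anti-GST marked bound protein, and scans were normalised with masliner.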

Point of comparison: ACGTAGTA, “PBM E-score” value 0.244. Against it:
- CCCGCAGC — lower, -0.23
- ACAACAAA — lower, 0.223
- CCTCGGCA — lower, 0.0288
- CTCTGGAA — lower, -0.0613
- ACTACTTA — lower, 0.0673
- TCCCGGGA — lower, -0.12
- CGAGCAAA — lower, -0.115
- AAACCGCG — lower, 0.141
- CCGAGATA — lower, -0.0451
- GGCCAGAA — lower, -0.0118
- CGCTTCGA — lower, -0.201
- CAGACGAA — lower, 0.188
- AACGCGCG — lower, 0.16
- CTCCGGAC — lower, -0.223
- ACCGAGGC — lower, -0.279
- GACGGTCA — lower, 0.128
- GGTCTCGA — lower, -0.12
- ATGGAAAT — lower, 0.122
- GGCAGCGA — lower, -0.175
- GGGATACA — lower, -0.196
- CCCCTAGA — lower, -0.271
- AGAAATCA — lower, 0.226
- CCACACAC — lower, -0.181
- GCGAGGAC — lower, -0.312
- CGACGGAA — lower, -0.188
- GTCACAAC — higher, 0.267
- AGTTCATA — lower, 0.0725
- CTTGCTTC — lower, 0.0607
- AAGCACCG — lower, -0.284
- ATAGGGAT — lower, -0.103
- CACTGGAC — lower, -0.0242
- GCGCCTGA — lower, 0.0826
- AGGGCATG — lower, -0.0674
- AGCCTACA — lower, -0.074
- ACCGTGAA — lower, -0.017
- GGGCCTGA — lower, -0.239
- CACTCGCC — lower, 0.0603
- ACACGCTC — lower, -0.0487
- GGGGCGCA — lower, -0.14
- ATCTAGCC — lower, -0.107
- ACATTGAA — lower, 0.111
- CAGACTCG — lower, -0.196
- ACCTCAGC — lower, -0.0534
- CTTGCCGA — lower, -0.11
- ATTAGCTC — lower, 0.0684
- CCGCACCG — lower, 0.171
- ATAACCTA — lower, 0.105
- ATCTTCAA — lower, 0.149
- AATATGAG — lower, 0.132
- AAGGAATG — lower, 0.00962
- GACGAATA — lower, 0.197
- CGTACAGA — lower, 0.0955
- AGTGCCAG — lower, -0.249
- ACGGGCGA — lower, -0.255
- ACTGATGG — lower, -0.132
- ACAGGTGC — lower, -0.0896
- CACGAAGA — lower, 0.165
- ATGTCATC — higher, 0.432
- CAACAGCC — lower, 0.153
- CCGGTACA — lower, -0.0357
- CTAAGGTA — lower, 0.104
- ACTTGTCC — lower, -0.0374
- ATTAGCGA — lower, 0.0978
- ATTACATC — higher, 0.433
- CGGAGGCC — lower, -0.345
- CACTGGCA — lower, -0.228
- CCAGCTCG — lower, -0.248
- TCATACAA — lower, 0.163
- ATATTCTG — lower, 0.23
- CTATTGAA — lower, 0.117
- AATACGTC — higher, 0.323
- CTTACGCA — higher, 0.249
- AAGCATTC — lower, 0.0269
- ATTCCGAG — lower, 0.0472
- CGGGGACC — lower, -0.235
- CTAAGGAC — lower, -0.288
- TTAAGTAA — lower, 0.179
- ATTTATGC — lower, 0.117
- GACAAAAC — lower, 0.166
- ACGCTTAG — lower, 0.0269
- AGACTACA — lower, -0.158
- AATCGTCT — lower, 0.11
- CAGGTTCG — lower, -0.0843
- AGTGTATG — lower, 0.132
- AGGCGTCA — higher, 0.256
- GAGAGACA — lower, -0.217
- CGTAATCC — higher, 0.3
- ACTGTACC — lower, -0.163
- AGCCGCAG — lower, -0.151
- GTCTGCAA — lower, -0.0255
- AGGGGATC — lower, -0.214
- ATTGTCAG — lower, 0.187
- AGCGACCC — lower, -0.207
- AGATAAGG — lower, 0.0246
- AGGTATAT — lower, 0.158
- ACAAGCCT — lower, -0.0781
- TAGTGACA — higher, 0.338
- GGTAGCTA — lower, -0.169
- AAAAAGCT — lower, -0.0599
- CTCACTAC — lower, -0.0184
- AATTAGAG — lower, 0.153
- CCTCGTCA — higher, 0.308
- ACTCAGTG — lower, -0.175
- CTAGTTGA — lower, 0.11
- CCCTGTAA — lower, -0.0976
- CAGCTTGA — lower, -0.0516
- AGTCTAAG — lower, 0.0832
- GCAGTTCC — lower, -0.193
- AGTACATA — lower, -0.0373
- ATTCTCAA — lower, 0.181
- AGGTTAAA — lower, -0.0484
- CGAGGGCG — lower, -0.195
- ACACAGAC — lower, 0.0563
- ATATATGG — lower, 0.228
- ACCATATC — lower, -0.0686
- TCCTCAAA — lower, -0.0326
- CGCTCCCC — lower, -0.251
- ACGATTCA — lower, -0.00128
- AGGGTAAT — lower, 0.0978
- GGCCGACC — lower, -0.336
- TATGCAAA — lower, 0.00091
- AAATGCTA — lower, 0.0446
- AACGGGCA — lower, -0.155
- AGAATATA — lower, 0.176
- AATGCATC — lower, 0.115
- CTCTACGA — lower, -0.095
- TACATAGA — lower, 0.0865
- AGCCTCCG — lower, -0.245
- CCACGCTA — lower, -0.102
- CAGTGTCA — lower, 0.0419
- ACAGGTTG — lower, -0.0827
- CCGTTTCA — lower, 0.131
- GATTGGAA — lower, -0.0964
- AAGTCATA — higher, 0.283
- GATACTAA — lower, 0.133
- GTCTCACA — lower, 0.0607
- AGAGGGGA — lower, -0.321
- AACCGGCG — lower, 0.0364
- GCAACCGC — lower, 0.00174
- ATGGAAAG — lower, 0.167
- ACGCAAGA — lower, 0.122
- TCCTCGCA — lower, -0.22
- CAAAGATG — lower, -0.0508
- CCATCCTC — lower, -0.0949
- AGTCCTGG — lower, -0.272
- AACTTTGA — lower, 0.124
- ACCCGTCG — lower, -0.263
- AGGAAAGA — lower, -0.106
- CGCATCTC — lower, -0.022
- AGCACTCG — lower, -0.351
- ACGGATAA — lower, 0.205
- CCACTTCC — lower, -0.0696
- AGTTTGAC — lower, 0.0432
- ATCAAGAC — lower, 0.114
- GAAACACA — lower, 0.122
- GACCCATC — lower, -0.183
- CGCGGAAA — lower, 0.0185
- CAGCGACA — lower, -0.24
- CTGCTGCA — lower, -0.152
- CGCAGAAC — lower, 0.208
- CATTTCGG — lower, -0.106
- ACTTCCTG — lower, -0.129
- GAATCAAA — lower, -0.121
- ATACTTAC — lower, 0.213
- CGATGCAG — lower, -0.141
- TAATGCCA — lower, 0.197
- GCCTCAAC — lower, -0.0374
- ACTTATCA — lower, -0.0145
- ATAAGGGG — lower, -0.114
- TAGACACA — lower, -0.101
- AGTTGTCA — lower, 0.205
